Data reported in the supplement of paper PMC11417369.
± gives the standard deviation of the averaged measurements. The list shows a part of the results.

Test system: PfAP2-LT AP2 domain (GST-tagged)
Assay: gcPBM binding intensity (ln(normalized median fluorescence intensity)); higher = stronger DNA binding
Method in brief: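 An Agilent 4 × 180k array carrying primer-extended double-stranded 36-bp intergenic genomic probes and negative controls received GST-tagged P. falciparum DNA-binding domains expressed in E. coli, about 25 μg on average, for 1 h. The binding buffer contained 1× PBS, 1% milk, 0.2 mg/ml BSA, 0.5% salmon testes DNA and 0.03% Triton X-100. Binding intensity is the top Masliner-normalised natural-log median intensity across replicate spots of either probe orientation, read after Alexa488 anti-GST antibody staining and a 488 nm scan.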

Q: “TATATATTCCTCCATAGTACAATAATAAAGATAAAA [XGTACX_site5785]” was tested. Which “gcPBM binding intensity (ln)” value did it give?
A: The value was 8.58 ± 0.38.

Q: With “ACCAATTTGACAAACTGTACAAAAAAAATATTAAAA [XGTACX_site1186]” as the sequence, how does the “gcPBM binding intensity (ln)” value read?
A: The value was 8.59 ± 0.6.

Q: How did the “gcPBM binding intensity (ln)” value turn out when “AACATTAATTTCCTATGTACTTAATATATTGTTTTT [XGTACX_site4440]” was run?
A: Its value is 8.83 ± 0.4.

Q: How did the “gcPBM binding intensity (ln)” value turn out when “AACACCCAAAAACACACACACATACATACATACATA [CACACA_site4411]” was run?
A: Its value is 9.8 ± 0.23.

Q: How did the “gcPBM binding intensity (ln)” value turn out when “ATTTATATATATGTATGTACGTATGTGTGTATATGT [XGTACX_site7587]” was run?
A: Its value is 9.36 ± 0.35.

Q: How did the “gcPBM binding intensity (ln)” value turn out when “CTTTCCCTATATTGCTGTACATGTATTCAAAAAACA [XGTACX_site353]” was run?
A: The value was 8.66 ± 0.37.

Q: For “CGCGAACATACATACACACACATATATATATCTGTA [CACACA_site4277]”, which “gcPBM binding intensity (ln)” value is on record?
A: The value was 9.62 ± 0.4.

Q: With “TTATGTATATTATAAATTAATACCTTTAAATTAATA [CACACA_negctrl_site67]” as the sequence, how does the “gcPBM binding intensity (ln)” value read?
A: Its value is 8.14 ± 0.48.

Q: How did the “gcPBM binding intensity (ln)” value turn out when “TATAACTTATTTTTTAGTACATATTATAGTTCATTT [XGTACX_site8649]” was run?
A: The value was 8.66 ± 0.49.

Q: With “TATATATACTTAGAAACACACAAAAATATTTTATAA [CACACA_site2578]” as the sequence, how does the “gcPBM binding intensity (ln)” value read?
A: Its value is 8.66 ± 0.39.

Q: With “TAATTAGTTTTTACTTTTTTTTTTTTTTTTCTATAT [CACACA_negctrl_site1024]” as the sequence, how does the “gcPBM binding intensity (ln)” value read?
A: Its value is 8.37 ± 0.54.

Q: Which “gcPBM binding intensity (ln)” value does the source give for ATAAAAAGCTAAAAAGTGCAAAAAGTAAATATTTAA here?
A: The value was 8.99 ± 0.61.

Q: “TTTTATAAAGAACACAGACACACAAAGAAAGAACCA [CACACA_site4174]” was tested. Which “gcPBM binding intensity (ln)” value did it give?
A: The value was 9.2 ± 0.52.

Q: How did the “gcPBM binding intensity (ln)” value turn out when “ATTCCTCATTAATATTCTTATTTTTTAATTCACATT [XGTACX_negctrl_site329]” was run?
A: Its value is 8.85 ± 0.52.

Q: With “TAAAAGGAGACATATACACACATATATATATATATA [CACACA_site5539]” as the sequence, how does the “gcPBM binding intensity (ln)” value read?
A: The value was 10 ± 0.23.

Q: With “TTTATTTAAAATAAGTGTACTAGAAAAATTAAGCAG [XGTACX_site4982]” as the sequence, how does the “gcPBM binding intensity (ln)” value read?
A: Its value is 8.48 ± 0.42.

Q: For “TGTGATTATGATAAAAGTACAGAAATAAATATACTA [XGTACX_site38]”, which “gcPBM binding intensity (ln)” value is on record?
A: The value was 8.64 ± 0.5.

Q: “CTTAAACTTTTAAATACACACATACAGACATACACA [CACACA_site6401]” was tested. Which “gcPBM binding intensity (ln)” value did it give?
A: Its value is 9.11 ± 0.26.

Q: How did the “gcPBM binding intensity (ln)” value turn out when “TACATATATATAATATATATATCATCATATTTTCTT [XGTACX_negctrl_site478]” was run?
A: Its value is 8.73 ± 0.58.

Q: “TAAAAATGATCAAAGGGTACAGTATTAATTAAAAAA [XGTACX_site1079]” was tested. Which “gcPBM binding intensity (ln)” value did it give?
A: Its value is 8.63 ± 0.54.

Q: With “TTTACTTTTTTTATATATTATTTATTATATAATATA [CACACA_negctrl_site211]” as the sequence, how does the “gcPBM binding intensity (ln)” value read?
A: Its value is 8.49 ± 0.5.

Q: How did the “gcPBM binding intensity (ln)” value turn out when “AATATACGATTGTCATTCATACATTGTTAACATAGT [CACACA_negctrl_site1151]” was run?
A: Its value is 8.89 ± 0.39.

Q: With “ATATACAGAAAAAATTAAAATAAATATGCAAAACAA [CACACA_negctrl_site704]” as the sequence, how does the “gcPBM binding intensity (ln)” value read?
A: Its value is 8.85 ± 0.47.

Q: How did the “gcPBM binding intensity (ln)” value turn out when “ACATAGTAAATATTATGTACATAATATATACATTTA [XGTACX_site7500]” was run?
A: Its value is 8.71 ± 0.36.

Q: For “TACAATGAACATGAAACACACAAAAAAAAAAAAAAA [CACACA_site1544]”, which “gcPBM binding intensity (ln)” value is on record?
A: Its value is 8.88 ± 0.54.

Q: Which “gcPBM binding intensity (ln)” value does the source give for “ATAATAAATACACTAGTGCAAAATAATATATGTACT [GTGCAC_site9707]” here?
A: Its value is 9.21 ± 0.4.

Q: For “TATTTAGACATAACAAATAGACTAACAAAAGATTTA [GTGCAC_negctrl_site614]”, which “gcPBM binding intensity (ln)” value is on record?
A: The value was 8.54 ± 0.39.

Q: Which “gcPBM binding intensity (ln)” value does the source give for “TATTATAAATAAATAGAAAAAAAAATGATAAATGGA [CACACA_negctrl_site865]” here?
A: Its value is 8.48 ± 0.53.

Q: For “ATATGTACTATACGCACACACACTCACATATTTATA [CACACA_site7510]”, which “gcPBM binding intensity (ln)” value is on record?
A: Its value is 9.73 ± 0.25.

Q: With “TTTATTTATATAATTACACACATATATACTCAAATG [CACACA_site5543]” as the sequence, how does the “gcPBM binding intensity (ln)” value read?
A: The value was 8.86 ± 0.44.

Q: For “ATAGGGTTTCTACTTTAACATTTTTGAAATATTATA [GTGCAC_negctrl_site260]”, which “gcPBM binding intensity (ln)” value is on record?
A: The value was 8.43 ± 0.42.

Q: How did the “gcPBM binding intensity (ln)” value turn out when “AATATATACACATGCGCACACACAAGTGGGAAATTT [CACACA_site8527]” was run?
A: Its value is 9.57 ± 0.33.

Q: With “ATCACTAATTTTTTTACACACCACAATTTAATTTTT [CACACA_site1186]” as the sequence, how does the “gcPBM binding intensity (ln)” value read?
A: Its value is 9.06 ± 0.4.

Q: How did the “gcPBM binding intensity (ln)” value turn out when “AAATGTGTTAATGTGCGTACACATATATATAATATT [XGTACX_site2792]” was run?
A: Its value is 8.97 ± 0.38.

Q: With “TTTTGCCTGAACAATGCATGTTATTTTTATTTTTTT [TGCATGCA_site673]” as the sequence, how does the “gcPBM binding intensity (ln)” value read?
A: The value was 8.82 ± 0.38.

Q: “TCATTTAAGTCATATTGAAATATGCATTATTCAAAA [CACACA_negctrl_site958]” was tested. Which “gcPBM binding intensity (ln)” value did it give?
A: The value was 8.34 ± 0.36.

Q: “TTTTTTTTTTTTTTTTTTATATTTCATAATTTCATT [XGTACX_negctrl_site579]” was tested. Which “gcPBM binding intensity (ln)” value did it give?
A: The value was 8.27 ± 0.62.

Q: “TTTATATTTCATTTGTTATTTTTCTTGGTTCTATAT [TGCATGCA_negctrl_site23]” was tested. Which “gcPBM binding intensity (ln)” value did it give?
A: Its value is 8.85 ± 0.49.

Q: For “GCACCAAAAAAAAGACGTACAGTTATATTAAAATAG [XGTACX_site8926]”, which “gcPBM binding intensity (ln)” value is on record?
A: Its value is 8.84 ± 0.47.

Q: “AAATGAACAAGTGGCACACACACATTCTAACTAATT [CACACA_site3203]” was tested. Which “gcPBM binding intensity (ln)” value did it give?
A: The value was 9.52 ± 0.44.

Q: With “AACCAAATTTCACCATGTACATATTGATAAATATAT [XGTACX_site1374]” as the sequence, how does the “gcPBM binding intensity (ln)” value read?
A: The value was 8.82 ± 0.34.

Q: Which “gcPBM binding intensity (ln)” value does the source give for “ATATGATTTGGATGTAGTACATATTTTTTTATGTTT [XGTACX_site1929]” here?
A: The value was 8.8 ± 0.5.

Q: With “ACCTTTAATAAATACACACACATAAAAAAAATATAT [CACACA_site5086]” as the sequence, how does the “gcPBM binding intensity (ln)” value read?
A: The value was 9.37 ± 0.41.

Q: Which “gcPBM binding intensity (ln)” value does the source give for “TAATGTATTATTTAATGTACTTAAAAAATAAATAAA [XGTACX_site3296]” here?
A: Its value is 8.23 ± 0.47.
